The text below walks through data of the supplement of paper PMC11417369.

The other results are listed elsewhere or left out.

This assay concerns PfSIP2 AP2 domain 1 (GST-tagged). Nature of the assay: gcPBM binding intensity (ln(normalized median fluorescence intensity)); higher = stronger DNA binding. The essentials: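 An Agilent 4 × 180k array carrying primer-extended double-stranded 36-bp intergenic genomic probes and negative controls received GST-tagged P. falciparum DNA-binding domains expressed in E. coli, about 25 μg on average, for 1 h. The binding buffer contained 1× PBS, 1% milk, 0.2 mg/ml BSA, 0.5% salmon testes DNA and 0.03% Triton X-100. Binding intensity is the top Masliner-normalised natural-log median intensity across replicate spots of either probe orientation, read after Alexa488 anti-GST antibody staining and a 488 nm scan.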
Take “TCAATAAATGAATATGCATGCACGCTCTTTAGAGAT [TGCATGCA_site553]”: the “gcPBM binding intensity (ln)” value was 8.67. Consider “GAGAAAAAAAAAAAAAAACACACGGTACATTCAAAG [CACACA_site1767]”, for which the “gcPBM binding intensity (ln)” value was determined as 6.76. On to “ATATTTATAAATTGCACACAAATAATAACATTCTAT [CACACA_site2357]”, for which the “gcPBM binding intensity (ln)” value is 7.02. The figure for “TATTATTATTATGGTAGTACATGTAGGTTATTAAAA [XGTACX_site5742]” is 7.31. The value for “AATTGGGAAGGACATGCATGAGAAATTAATATTGCA [TGCATGCA_site424]” was 6.7; that for “AACATACACATATACACACACACATATATACCTATA [CACACA_site6643]” was 7.38; that for “TCAATTTTACTTGTTTGTACATAAAATAATAAGGTT [XGTACX_site3732]” was 7.12. As for “AAGAAAAAAAAAATTACACACTGCGGACATACACAA [CACACA_site4838]”, the “gcPBM binding intensity (ln)” value is 6.91. The figure for “ATATTTTGTTTTTGTTCTTTTTTTTTCTTTTTTTTT [CACACA_negctrl_site1342]” is 6.65. The figure for “ATATCTACTATACAACTGAGTGTAGAAAAATTAAAC [CACACA_negctrl_site1211]” is 7.19; for “ACTTTGCTCTACAATGCATGCTCATTTAACAAGGCA [TGCATGCA_site676]” it is 7.24; for “TATATTAAATGAAACAAACACACATAGCCTTTAAAT [CACACA_site1559]” it is 6.9. On to “AATATATTTAATCATACACACATTTATGTACCTATA [CACACA_site1718]”, for which the “gcPBM binding intensity (ln)” value came out at 7.02.

With “TCGCCCTACAATTTGTTTATATATTAAATAAAATTT [CACACA_negctrl_site883]”, the “gcPBM binding intensity (ln)” value was 7.31. As to “TGAAATTCCATAAAATGTACATATTAGTTTAATTCA [XGTACX_site4031]”, the “gcPBM binding intensity (ln)” value amounted to 6.75. Take CATCATCTTTTAAAGGTGCATAATAATATTGTTAAT: the “gcPBM binding intensity (ln)” value is 11.1. The value for “ATGTTCTTTAAAACCACACACCCCCCAACCCCCCTC [CACACA_site2373]” was 9.7. The figure for “GTCTATTATTTTTGAAGTACAAAAATTTTAGTTAAA [XGTACX_site4708]” is 7.26.

Take “AAAAATAAATATATATGTACACATATGTATACAATA [XGTACX_site4692]”: the “gcPBM binding intensity (ln)” value is 7.03.

“GAAATAAATATAATATATATATATATATATATATGT [TGCATGCA_negctrl_site216]”: the “gcPBM binding intensity (ln)” value is 7.9. The figure for “GGTATACACAGACATGCATGTAATTATATATAGGGA [TGCATGCA_site83]” is 7.33. TTACAACATGAAAATGTGCACATATATATATATATA: the “gcPBM binding intensity (ln)” value stood at 9.25. On to “TGAATTAAGATTTATTGTACATAATTTATACCATAT [XGTACX_site7034]”, for which the “gcPBM binding intensity (ln)” value was found to be 6.88.

“TAAATTTATAGACACACACACATATAAATAAATATA [CACACA_site6530]”: the “gcPBM binding intensity (ln)” value was 7.08.

In the case of “ATATAATATATATATTGTACATATATTTATAAGCAT [XGTACX_site3726]”, the “gcPBM binding intensity (ln)” value turned out to be 7.04. The figure for “TATATATATATATATTGTACATTTACCAAATTGTGT [XGTACX_site5791]” is 9.42; for “AATGTGCTCGCTATTACACACTCATTGGGATAAACT [CACACA_site7043]” it is 6.79.

In the case of “TATATAAATAAATATACACACATATATAAATATACA [CACACA_site2982]”, the “gcPBM binding intensity (ln)” value came out at 6.81. The value for “TTTTTTTTTTTTTGCACACTTAAATTTGGAGTGTAG [CACACA_site2345]” was 7.65; that for “TTTAATAATAATACTAGTACACATTCTTTATTATTT [XGTACX_site2671]” was 7.14.

As to “AAAGTAAAAAATCATAGTACACATTTAAATATATAT [XGTACX_site2323]”, the “gcPBM binding intensity (ln)” value came to 7.12. The figure for “TAATATATCAAATGAAGTACTCACATATACATAATA [XGTACX_site6051]” is 6.85. The value for “GGTATATATTTATAATGTACATATTCATATATATAA [XGTACX_site3291]” was 7.25; that for “TTTTTTAAATTATGTAGTACGATTCATTTTTTATAA [XGTACX_site1101]” was 6.89. The figure for “AAGATTTTCCTTGATAGTACACTTATGAAAATTTGT [XGTACX_site3047]” is 6.92. As for “AATATCTTAGTGGATACACACATATAAATGTGGATT [CACACA_site485]”, the “gcPBM binding intensity (ln)” value stood at 6.72.

“ATATATTACGACTTCTGTACATAATATATAAAAGAA [XGTACX_site2353]”: the “gcPBM binding intensity (ln)” value came out at 7.

In the case of “TTTTTTTTTTTTTTTTTTTTTTTGTCTTATTTTTTT [GTGCAC_negctrl_site338]”, the “gcPBM binding intensity (ln)” value is 6.81. The value for “TATATATCAATATGCACACACAAGAAGTAATTATAA [CACACA_site7487]” was 8.2; that for “TAAAAAGTATATAAGAGTACACATATTTATAAATAT [XGTACX_site3084]” was 7.16; that for “AGACTTTGTACAAACACACACATGAGCACAATATTA [CACACA_site6755]” was 7.26.

Take “AACAAATTTTTTTTTCCTTTTTTTTTTTTACTTCAT [CACACA_negctrl_site1214]”: the “gcPBM binding intensity (ln)” value is 6.52. The value for “ATAAACAAAGTTAAATGTACAAAGGGGTAAAAAAAA [XGTACX_site83]” was 6.9; that for “ACACAATTGAAATAGTGTACAAAATGTTGTTACATA [XGTACX_site8671]” was 6.94; that for “TTATTAACCAAACGCACATGCAAAATATATTATATA [TGCATGCA_site915]” was 7.09.

Regarding “AAATAAATAATATGTAAACACACAAAAAATAAAAAT [CACACA_site8307]”, the “gcPBM binding intensity (ln)” value turned out to be 6.96. Take “TTTTTTTTTCGGAAAAGTACAAAACTTTTTTATAAT [XGTACX_site4670]”: the “gcPBM binding intensity (ln)” value came to 6.88. The figure for “TTTTTTTTTTTCGGGGGTACTAATATATTATTAATA [XGTACX_site7809]” is 8.37; for “GTTTTTAAGAAAAACACACACTCCTGTTATTTTATA [CACACA_site3696]” it is 6.92; for “AACAAAATTGAAGGAACACACATACAGATATATATA [CACACA_site4264]” it is 7.16. The figure for “TAATAATTAATTAATATAATATTTTTTCATAATTAT [XGTACX_negctrl_site602]” is 6.82; for “ATAGAAAAAATATACACACACTTATTAAATAAAAAT [CACACA_site7540]” it is 6.91.

As to “CATGTGCATATTAAATGTACATATATACATATATAC [XGTACX_site857]”, the “gcPBM binding intensity (ln)” value was determined as 7.74. In the case of “ATATAGGTATTTAATACACACAAAACTTTCATTCCA [CACACA_site7627]”, the “gcPBM binding intensity (ln)” value turned out to be 6.99. The value for “AAGGATGATACAACTTGTACATATTTGCTTAATATA [XGTACX_site764]” was 6.8; that for “ATATAAATATATTGCACACACAATTATTATTATTAT [CACACA_site7147]” was 7.15.

Take “TATAATGTTAAATAATGTACATATTTTTTTTTTTTT [XGTACX_site4721]”: the “gcPBM binding intensity (ln)” value stood at 7. As for “AAAGCTAATATTATATGTACTTATATATTTATATAT [XGTACX_site4474]”, the “gcPBM binding intensity (ln)” value was determined as 7.04. The figure for “ATATAAATCTACACCGCACACAAAAACAACAAATAT [CACACA_site2506]” is 7.35; for “AAATAAATGAAACACACACACACAAAAAAAAAAAAC [CACACA_site2625]” it is 7; for “AGGATACACAGACACACACACATATATATATATATA [CACACA_site907]” it is 9.2. Turning to “TAAATAGATGTTTTATGTACGTATAAATAAAAAAAA [XGTACX_site3412]”, the “gcPBM binding intensity (ln)” value was 6.95. Take “TTTTTTTAAAGACATGCATGTAATATTTAAATCATT [TGCATGCA_site495]”: the “gcPBM binding intensity (ln)” value turned out to be 6.94. As for “ATTAAAAATATAGTCACACATACACCCATATATATT [CACACA_site5394]”, the “gcPBM binding intensity (ln)” value came out at 6.92. For “AATATATTTTTTCACTGTACTTTTATTATATATACA [XGTACX_site8312]”, the “gcPBM binding intensity (ln)” value was found to be 7.26. On to “AAAAAAAATGGATGATCACACACTTCATAAAAATTG [CACACA_site2213]”, for which the “gcPBM binding intensity (ln)” value was 6.85. For the sequence “ATAATTTTTTGATTTGCATGTAATAAATATATGATA [TGCATGCA_site384]”, the “gcPBM binding intensity (ln)” value stood at 7.01. The value for “GATTTTTTTTTGTGGACACACAGAAATAAATTTATA [CACACA_site327]” was 7.04; that for “ATACAACGATATATATATATACAAATACATATTTAT [CACACA_negctrl_site268]” was 7.15. The value for “CACATACAGATATATACACACAAATATATATACTCA [CACACA_site4591]” was 7.29; that for “TTTGTAAAACTATATTGTACTTTTATATATCTACAA [XGTACX_site5507]” was 6.9; that for “ACAACTCGGAAGGTTTGTACTTAAAGTATAATTAAG [XGTACX_site737]” was 6.95. As for “AATTGGAAGAAAAAAAAGGAAGGAAAGTTATTACAT [GTGCAC_negctrl_site74]”, the “gcPBM binding intensity (ln)” value was 6.49.

Turning to “TATATACATGCATATACACACATATATTTATTTATA [CACACA_site6327]”, the “gcPBM binding intensity (ln)” value was determined as 7.03. In the case of TCATACATGGTGTGTTTGCACTTGACCTATATTCAT, the “gcPBM binding intensity (ln)” value worked out at 7.57. In the case of “TCTTGAATAACAAAAAAATGTGCCAACAAAATAAAT [XGTACX_negctrl_site172]”, the “gcPBM binding intensity (ln)” value came to 7.08. The value for “GTATATATGTATGTATGTACGTATATAGTTATGTAT [XGTACX_site6769]” was 7.42. The figure for “ATAAAAAAATTAAATACATGCACATATACACATACA [TGCATGCA_site129]” is 7.81; for “TACTGAAATAATTATTTAAACGTTTTTATATGTATT [CACACA_negctrl_site487]” it is 6.81.

“TTTATTTTTTCCAAGTCACACATGTTTTGATATATT [CACACA_site4946]”: the “gcPBM binding intensity (ln)” value came to 7.04. In the case of “TTTTTTAACCTTTTATGTACACAATATTTAACATTT [XGTACX_site1170]”, the “gcPBM binding intensity (ln)” value was found to be 7.08. The figure for “ACTTACACAGTTGATGGTACACTTTTATGATTTTGT [XGTACX_site3205]” is 7.01. Turning to “ATTTCATATTATGTAACACACAACAAGATAATCAAA [CACACA_site1960]”, the “gcPBM binding intensity (ln)” value was determined as 6.85. The value for “TATATATAAAGGTGTACACATATATATATATCTGTA [CACACA_site5311]” was 7.24; that for “ACAAGTTAAAATATTACACACATATAAATATATATA [CACACA_site3132]” was 7.25; that for “TTTTATTTACACAGTGGTACTATTAAAAATTAATGA [XGTACX_site6737]” was 6.96. The value for “ATAAGGTTACAACAAACACACAAAGGAATATACTCA [CACACA_site6108]” was 6.9. For the sequence “ATAATATGAAAACACACACACACACTAGAAAAAAAA [CACACA_site5153]”, the “gcPBM binding intensity (ln)” value is 7.02. The figure for “ATTATTTAAATGGATGCACACATGCATTAAATAAAA [CACACA_site5831]” is 8.52.
